Paper PMC4336329 (PLoS ONE, 2015)
Among all 310,000 compounds or so, about 2,200 (0.71%) showed an effect of 50% or more. Effects have a minus sign here. The list shows a part of the results.

Target: human ether-à-go-go-related gene (hERG) potassium channel (human, UniProt Q12809)
Test: primary screen, population patch clamp on CHO cells stably expressing hERG

human ether-à-go-go-related gene (hERG) potassium channel, sequence (Q12809 whole entry, looked up): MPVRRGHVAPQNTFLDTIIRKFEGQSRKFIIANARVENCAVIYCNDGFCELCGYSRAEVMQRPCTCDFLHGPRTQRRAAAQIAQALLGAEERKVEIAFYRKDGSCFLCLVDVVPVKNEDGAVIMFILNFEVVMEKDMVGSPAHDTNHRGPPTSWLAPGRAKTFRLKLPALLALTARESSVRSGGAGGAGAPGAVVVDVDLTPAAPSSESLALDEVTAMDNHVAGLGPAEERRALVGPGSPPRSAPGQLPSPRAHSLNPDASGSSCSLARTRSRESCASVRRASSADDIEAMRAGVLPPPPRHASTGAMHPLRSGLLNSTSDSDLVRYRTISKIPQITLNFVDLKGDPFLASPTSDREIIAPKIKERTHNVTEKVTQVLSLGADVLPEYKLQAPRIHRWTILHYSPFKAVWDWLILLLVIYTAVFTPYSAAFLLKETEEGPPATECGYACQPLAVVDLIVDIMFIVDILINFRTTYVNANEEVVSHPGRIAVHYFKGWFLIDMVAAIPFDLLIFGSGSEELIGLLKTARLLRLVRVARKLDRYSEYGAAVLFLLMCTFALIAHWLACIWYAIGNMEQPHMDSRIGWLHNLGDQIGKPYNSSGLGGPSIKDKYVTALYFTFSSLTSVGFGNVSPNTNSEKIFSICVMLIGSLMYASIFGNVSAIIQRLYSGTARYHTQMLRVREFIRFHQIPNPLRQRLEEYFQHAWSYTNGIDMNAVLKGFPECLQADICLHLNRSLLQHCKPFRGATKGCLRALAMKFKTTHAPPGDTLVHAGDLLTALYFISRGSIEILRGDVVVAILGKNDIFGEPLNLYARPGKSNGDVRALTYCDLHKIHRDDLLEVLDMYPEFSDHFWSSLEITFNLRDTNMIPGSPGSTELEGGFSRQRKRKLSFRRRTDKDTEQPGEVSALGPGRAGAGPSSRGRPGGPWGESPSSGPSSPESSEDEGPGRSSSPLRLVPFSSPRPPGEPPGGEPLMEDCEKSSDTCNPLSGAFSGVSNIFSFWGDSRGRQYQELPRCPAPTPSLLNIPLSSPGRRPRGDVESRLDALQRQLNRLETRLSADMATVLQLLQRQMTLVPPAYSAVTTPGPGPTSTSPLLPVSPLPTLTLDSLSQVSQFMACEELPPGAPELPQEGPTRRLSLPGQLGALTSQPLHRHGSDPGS

Row | SMILES | hERG current change (%, negative = inhibition) at 1uM [%]
1 | Cc1ccc(NC(=O)c2cccnc2)cc1S(=O)(=O)N1CCOCC1 | 7.09
2 | CCC(C(=O)O/N=C(\N)c1ccccc1)c1ccccc1 (centres unmarked) | 10.5
3 | CC(C)Nc1ccc(Cl)cc1[N+](=O)[O-] | 11.1
4 | O=C(N/N=C/c1ccc2c(c1)OCO2)c1ccc2ccccc2n1 | 10.1
5 | Cc1ccc(NC(=O)C2CCCN(c3nccc(C)n3)C2)c(C)c1 (centres unmarked) | 14.9
6 | N#Cc1ccc(-n2nnc3ccccc3c2=O)c([N+](=O)[O-])c1 | 14.3
7 | S=C(NCCc1ccccc1)NCc1cccc(Cl)c1 | 10.1
8 | COc1cccc(NS(=O)(=O)NC(=O)c2cn(C)c3ccccc23)c1 | 9.87
9 | CC(=O)NN1C(=O)c2ccc(Oc3ccc4c(c3)C(=O)N(NC(C)=O)C4=O)cc2C1=O | 10.7
10 | CC1CC(C)CN(CC(=O)c2c[nH]c3ccccc23)C1 (centres unmarked) | 12.3
11 | CC(C)COC(=O)c1nnsc1NC(=O)Nc1ccccc1 | 14.2
12 | Cc1ccnc(NS(=O)(=O)c2ccc(Oc3ccccc3)cc2)c1 | 15.9
13 | Cn1c(=O)[nH]c(=O)c2c1nc(Br)n2Cc1ccccc1Cl | 3.38
14 | CN(Cc1cccc(-n2cccn2)c1)Cc1cn(C)nc1-c1ccccc1F | 16.7
15 | CCOC(=O)CCN(Cc1ccccc1)S(=O)(=O)c1csc(C(N)=O)c1 | 1.73
16 | CN(C)c1cc(-c2ccc(Br)cc2)oc(=O)c1Cl | 11.8
17 | COc1ccc(N2CCN(C(=O)c3oc4ccccc4c3C)CC2)cc1 | 6.94
18 | O=C(NCCO)c1nc2ccccc2s1 | 8.81
19 | Clc1cccc(-c2cc3nc4c(c(N5CCOCC5)n3n2)CCCC4)c1 | 5.26
20 | CNC(=O)c1nnc(Cc2ccc(F)cc2)o1 | 12
21 | Cc1nnc(SCc2nc3ccccc3c(=O)n2-c2ccccc2Cl)n1N | -13.7
22 | CC(=O)NN1C(=O)/C(=C\c2ccc(Br)o2)SC1=S | 6.46

Row | SMILES | hERG current change (%, negative = inhibition) at 1uM [%]
23 | NC(=O)c1ccc(N2CCC(C(N)=O)CC2)c([N+](=O)[O-])c1 | 10.6
24 | CC(C)c1ccc(C(C(=O)NC(C)(C)C)N(C(=O)CNC(=O)c2ccco2)c2cccnc2)cc1 (centres unmarked) | 13.3
25 | O=C(COC(=O)c1ccccc1)NC1CCCC1 | 2.05
26 | COc1ccc(-c2noc(-c3ccoc3C)n2)cc1OC | 9.22
27 | Cc1ccc(NC(=O)CCN2CCN(CCO)CC2)cc1Br.Cl | 1.45
28 | CC(=O)N1CCOc2ccc(S(=O)(=O)N3CCC(C)CC3)cc21 | 18.5
29 | COc1ccc(C2C(C#N)=C(N)N3C(=C2C#N)Sc2ccccc23)cc1 (centres unmarked) | 13.7
30 | CCOC(=O)C1=C(N)Oc2cc(O)ccc2C1c1cccc(Cl)c1 (centres unmarked) | 0.55
31 | COc1cccc(C(=O)NC2CC3CCC(C2)N3Cc2ccccc2)c1 (centres unmarked) | -2.53
32 | Cc1nc2ccccc2c(=O)n1NC(=O)c1cccc([N+](=O)[O-])c1 | 8.06
33 | COc1cccc(NC(=O)CC2S/C(=N\S(=O)(=O)c3ccccc3)N(c3ccccc3)C2=O)c1 (centres unmarked) | 10.5
34 | CCN(CC)C(=O)CSc1nnc(-c2ccccc2)n1N | 13.6
35 | COc1ccccc1Nc1nc(N)nc(CSC(=S)N2CCC(C)CC2)n1 | -1.81
36 | CCOc1ccccc1CN1CCC(n2nccc2NC(=O)CCCc2ccccc2)CC1 | -29.2
37 | CC1CC(C)CN(S(=O)(=O)c2ccc(NC(=O)CCN3C(=O)C4CC=CCC4C3=O)cc2)C1 (centres unmarked) | 7.34
38 | CC1=CC(C)(C)N(C(=O)CSc2nnc(C)s2)c2ccc(C)cc21 | 6.8
39 | Cn1c(=O)c2c(nc(CN3CCc4ccccc4C3)n2Cc2ccc(Cl)cc2)n(C)c1=O | 15.8
40 | CC(=O)Oc1ccc2cc(-c3nc4ccccc4n3C)c(=O)oc2c1 | 6.36
41 | c1ccc(-c2nc(NC3CCCC3)c3ccccc3n2)cc1 | 18.4
42 | NC(=O)NC(CC(=O)NNC(=O)c1ccccn1)c1ccc(Cl)cc1 (centres unmarked) | 6.88
43 | O=C(NN1C(=O)C2C3CCC(O3)C2C1=O)c1ccc(Cl)cc1 (centres unmarked) | 8.32
44 | O=C(Nc1cc(Cl)ccc1N1CCOCC1)c1ccc(N2CCCCC2)c([N+](=O)[O-])c1 | 2.3

Row | SMILES | hERG current change (%, negative = inhibition) at 1uM [%]
45 | COc1ccccc1NC(=O)CCCCC(=O)Nc1ccccc1OC | 12.8
46 | O=c1[nH]c2ccccc2cc1CN(Cc1ccco1)S(=O)(=O)c1ccc(F)cc1 | 11.1
47 | COC(=O)C1=C(c2ccc(S(C)(=O)=O)cc2)C[C@@H]2CC[C@H]1N2C(=O)NC(C)C | -24
48 | COc1ccc(NC(=O)C2CCN(Cc3cnn(-c4ccccc4)c3-n3cccc3)CC2)cc1OC | 12.7
49 | Cc1oc(-c2ccccc2)nc1Cn1cccc1C1=NC(c2ccccc2)CO1 (centres unmarked) | 11.3
50 | COc1ccc(CCN=C(N)NS(=O)(=O)c2ccccc2)cc1 | 13.7
51 | CC1CCN(C(=O)CCC(=O)Nc2nnc(C(F)(F)F)s2)CC1 | 17.4
52 | O=C(N/C(=C/c1cccc([N+](=O)[O-])c1)C(=O)N1CCOCC1)c1ccccc1Br | -3.03
53 | N=c1c(C(=O)NCc2ccccc2)cc2c(=O)n3ccccc3nc2n1CCCN1CCOCC1 | -80.7
54 | COc1ccc(/C=N/n2c(SC)nnc(C(C)(C)C)c2=O)c(OC)c1 | 10.2
55 | COc1ccc(C(=O)C(C)OC(=O)CCN2C(=O)C3CC=CCC3C2=O)cc1 (centres unmarked) | 6.39
56 | O=C(CSc1nnc(CNC(=O)c2ccccc2)o1)Nc1ccc2c(c1)OCCO2 | 14.8
57 | CC1C(c2cccs2)=[N+]([O-])C(C)(C(=O)c2ccc(Cl)cc2)N1O (centres unmarked) | 10.1
58 | C#CCOCCOCCOCCNc1nc(N2CCN(C(=O)[C@H]([C@@H](C)CC)n3cc(CCC[NH+]=C(N)N)nn3)CC2)nc(N2CCN(C(=O)[C@H](CCCC[NH3+])n3cc(CC(C)O)nn3)CC2)n1.[Cl-] (some centres unmarked) | 13.7
59 | CCn1cc(C(=O)O)c(=O)c2cnc(N3CCN(C(=S)NC(=O)c4ccccc4Cl)CC3)nc21 | 25.5
60 | CCCCNC(=O)N1CCN(c2ccnc3cc(Cl)ccc23)CC1 | -46.3
61 | O=C(O)c1cccc2c1C(=O)c1ccc(-c3ccc(Cl)c(C(F)(F)F)c3)cc1S2(=O)=O | 6.77
62 | COc1ccc(CNC(=O)C(C)N2C(=O)NC(c3ccccc3)(c3ccccc3)C2=O)cc1 (centres unmarked) | -56.1
63 | CC(=O)N(CCCN(C)C)CCC(C)CCC=C(C)C (centres unmarked) | 0.619
64 | Oc1ccc(-c2csc(Nc3cccnc3)n2)cc1 | 5.88
65 | Cc1cc(C)cc(NC(=O)NC2CCCCCCC2)c1 | 11.7
66 | NS(=O)(=O)c1ccc(NC(=O)COC(=O)COc2ccc3ccccc3c2)cc1 | 16.8

Row | SMILES | hERG current change (%, negative = inhibition) at 1uM [%]
67 | CN1CC(=O)N(CC(=O)Nc2ccc(SC(F)F)cc2)C1=O | 2.95
68 | COc1ccc(-n2nc(C(=O)NCC(=O)NC(C)C)c3ccccc3c2=O)cc1OC | 9.79
69 | Nc1nc(-c2ccco2)nn1C(=O)c1ccc([N+](=O)[O-])cc1 | 13.6
70 | CC(=O)N1CCCN(Cc2cn(-c3ccc(C)cc3)nc2-c2ccc(F)cc2)CC1 | 4.46
71 | COc1ccccc1CNC(=O)C1CCC(=O)N(CCCc2ccccc2)C1 (centres unmarked) | 4.11
72 | CC1CCCC(NC(=O)NC(=O)COC(=O)C2=NN(c3ccccc3)C(=O)CC2)C1C (centres unmarked) | 13.6
73 | O=c1[nH]c(CN2CCc3ccccc32)nc2scc(-c3cccs3)c12 | 5.09
74 | CCCCNC(=O)CSc1nnc(-c2cccc(S(=O)(=O)N3CCOCC3)c2)o1 | 2.2
75 | CN1C(=O)/C(=C2\SC(N)=NC2=O)c2ccccc21 | 12.2
76 | Cc1ccc(NC(=O)CCc2nnc3ccc(N4CCC5(CC4)OCCO5)nn23)cc1F | 7.6
77 | CCN(CC)CCNC(=O)c1cc2cc3ccc(OC)cc3nc2o1 | 1.89
78 | COCCNC(=O)C(=O)Nc1ccc(Cl)cc1C | 7.33
79 | C=CCn1c(SCc2ccc(F)cc2)nnc1-c1sc2nc(C)cc(C)c2c1N | 8.23
80 | CCOC(=O)N1CCC(NC(=O)C(Cc2ccccc2)NC(=O)C2CCCCC2)CC1 (centres unmarked) | 2.7
81 | Cc1[nH]c(=O)c(C#N)c(C)c1Cc1ccc(Cl)cc1Cl | 15.3
82 | COc1ccccc1N/N=C/c1c(CO)cnc(C)c1O.Cl | 8.9
83 | O=C(NCCCCc1ccccc1)C1CC(c2cccc([N+](=O)[O-])c2)=NO1 (centres unmarked) | 3.84
84 | COc1ccccc1-c1nnc2n1N=C(C(C)(C)C)CS2 | -12.6
85 | COC(=O)COc1ccc(S(=O)(=O)Nc2ccc(C(N)=O)cc2)cc1C | 20.7
86 | O=c1cc(-c2ccc(O)cc2)oc2c([C@@H]3O[C@H](CO)[C@@H](O)[C@H](O)[C@H]3O)c(O)c([C@@H]3O[C@H](CO)[C@@H](O)[C@H](O)[C@H]3O)c(O)c12 | 12.6
